The campaign covered roughly 360,000 compounds. About 7,500 (2.1%) were called active. This list was built around the results that the source calls inconclusive (neither active nor inactive); the mix of calls is not that of the screen. The call rests on the fitted dose curve; in most records, active means well fitted cell-killing curve with a large enough effect; inconclusive means small, poorly fitted or top-dose-only effect, or effect the other way, or another doubt; inactive means no such curve, though single readings can be large or run the other way. Potencies of inconclusive entries are left out as doubtful fits.
Experiment: qHTS for induction of synthetic lethality in tumor cells producing 2HG: qHTS for the HT-1080-IDH1KD cell line;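 on activity, negative = toxicity: 0% = DMSO wells and -100% = cell-free medium wells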
Conditions: HT-1080 IDH1 knockdown viability, ATP luminescence, 48 h; activity, negative = toxicity: at 46.1 µM (top of the series) unless noted
Summary of the method: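 HT-1080-IDH1KD cells (IDH1 knocked down), 750/well in RPMI with 5% FBS, treated with compound 48 h at 37 degrees C. Viability by CellTiter-Glo luminescence, normalised to DMSO and no-cell wells; concentration-response curves classed.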
Potency means the concentration at half of the fitted maximal effect; tags describe the fitted curve by direction and shape.

SMILES	activity, negative = toxicity	Potency
CC(=O)N1CCN(C(=O)C(Cc2ccccc2)NC(=O)c2ccccc2)CC1 (stereo not given)	inactive: 4.84%	
CCc1nc2ccc(C(=O)N(C)CC(=O)Nc3ccc(F)c(F)c3F)cc2nc1CC	inconclusive: 31.5%	
COc1cc(CCC(=O)NCc2ccc3c(c2)OCO3)cc(OC)c1OC	inactive: 7.91%	
CCCS(=O)(=O)c1nnnn1-c1cccc(OC)c1		active: 6.31 µM
CC(C)(C)/C(O)=C/c1nc2ccccc2oc1=O	inconclusive: -32.6% [cytotoxic]	
CCCCC(=O)N(C)c1c(CC)nc2c(OCC=C(C)C)cccn12		inconclusive [cytotoxic, single point]
COc1ccc2[nH]c3nc(SCc4nnc(-c5ccc(C)cc5)o4)nnc3c2c1		inconclusive [cytotoxic, single point]
CCOC(=O)C1(C)CCN1C(=O)c1cc(-c2ccc(Cl)cc2)oc1C (stereo not given)		inconclusive [cytotoxic, single point]
O=C(NCC1CC1)c1ccc(-c2cn[nH]c2)c2ccoc12	inactive: -9.62%	
Cc1ccccc1CS(=O)(=O)c1cn(CC(=O)N2CCC(C)CC2)c2ccccc12	inactive: 9.93%	
CC(C)CCNC(=O)Cc1csc(-c2ccccc2)n1	inactive: -1.42%	
COc1ccc(S(=O)(=O)Nc2ccc(O)c3ccccc23)cc1	inactive: -20.8%	
CCOC(=O)c1[nH]c2cc(OC)c(OC)cc2c1NC(=O)c1nonc1C		inconclusive [cytotoxic, single point]
CCOc1ccc2nc(C)cc(Nc3cccc([N+](=O)[O-])c3)c2c1		active: 18.4 µM
O=C(Nc1ccc2nc3n(c(=O)c2c1)CCCCC3)c1c(F)ccc([N+](=O)[O-])c1F		active: 14.6 µM
O=c1c2cc(Cl)ccc2[nH]c(=S)n1Cc1ccco1		active: 11.2 µM
NC(Cc1ccccc1)c1csc(Nc2ccc(C(=O)c3ccccc3)cc2)n1 (stereo not given)		inconclusive [cytotoxic, single point]
Cc1cc(C)c2c(c1)cc(C)c1nnc(SCC(=O)Nc3cc(C)on3)n12		inconclusive [cytotoxic, single point]
O=S(=O)(Nc1cccc(Oc2ccc(Cl)cc2)n1)c1ccc(F)cc1		inconclusive [cytotoxic, single point]
Cc1cc(-c2cc(C)c(N)cc2C)c(C)cc1N		inconclusive [cytotoxic, single point]
COc1ccc(/C=C/C(=O)Nc2ccc(-c3nnc4n3CCCCC4)cc2)c(OC)c1	inactive: -23.6%	
N#CCC(=O)N/N=C\c1ccccc1OC/C=C/c1ccccc1	inactive: -19.1%	
Cc1cc(NC(=O)CSc2nc3c([nH]c4ccccc43)c(=O)n2-c2cccc(C(F)(F)F)c2)no1		inconclusive [cytotoxic, partial curve]
CC(=O)Nc1ccc2c(c1)CCCN2C(=O)c1ccccc1	inactive: -0.871%	

SMILES	activity, negative = toxicity	Potency
O=C(/C=C/c1ccc(Cl)cc1)NC(=S)Nc1ccc(NC(=O)c2ccco2)cc1		inconclusive [cytotoxic, partial curve]
Cc1nn(-c2ccccc2)c(Cl)c1/C=N/Nc1nc2ccccc2n1C		inconclusive [cytotoxic, single point]
Cc1ccc(NS(=O)(=O)c2cccc(C(=O)NCC(c3cccs3)N(C)C)c2)cc1 (stereo not given)		inconclusive [cytotoxic, single point]
COc1ccc(/C=C/C(=O)c2cc3c(cc2N)OCO3)cc1		inconclusive [cytotoxic, single point]
Cc1ccc(S(=O)(=O)N2CCN(c3nc(-c4cncn4C)nc4ccccc34)CC2)cc1		inconclusive [cytotoxic, single point]
COc1ccc(NC(=O)c2cc([N+](=O)[O-])ccc2N2CCCC2)cc1S(N)(=O)=O	inactive: -11.1%	
Cc1nc(C(F)(F)F)ccc1C(=O)N1CCC1(C)C(=O)Nc1ccc2c(c1)OCO2 (stereo not given)	inactive: 1.73%	
O=C(NC(c1ccc(-c2ccccc2)cc1)c1cnccn1)C1CCN(Cc2ccc3c(c2)OCO3)CC1 (stereo not given)		active: 10.3 µM
CN(C)c1ccc(CC(=O)N2CCCC(c3cc(C(=O)Nc4ccc(F)c(Cl)c4)no3)C2)cc1 (stereo not given)		inconclusive [cytotoxic, single point]
NC(=O)CC(NC(=O)Cc1ccc(Br)cc1)c1ccc(N2CCN(c3ccccn3)CC2)c([N+](=O)[O-])c1 (stereo not given)	inactive: 2.62%	
Cc1ccc(C)c(C(O)c2ncc(-c3ccc(C(F)(F)F)cc3)[nH]2)c1 (stereo not given)		inconclusive [cytotoxic, single point]
CCOC(=O)C1=CCN(S(=O)(=O)c2ccccc2C)C1c1ccc(Cl)cc1 (stereo not given)		inconclusive [cytotoxic, single point]
O=C(Nc1ccc(C(=O)N2CCCC2)cc1)c1ccc2c(c1)OCO2		inconclusive [cytotoxic, partial curve]
O=C(/C=C\c1ccco1)Nc1cc([N+](=O)[O-])ccc1F		inconclusive [cytotoxic, full curve]
Oc1c(Br)cc(Br)cc1CNc1cnc2ccccc2c1	inactive: -7.24%	
CC1(C(=O)NS(=O)(=O)c2cccs2)CCN1C(=O)CC1CCCC1 (stereo not given)	inconclusive: 31.8%	
CCOc1ccc2nc(N3CCCC(C(=O)NCCCN4CC(C)CC(C)C4)C3)sc2c1 (stereo not given)		inconclusive [cytotoxic, single point]
CN1CCN(c2nc(Nc3ccc(F)cc3)nc(Nc3ccc(F)cc3)n2)CC1		inconclusive [cytotoxic, single point]
COc1ccc(/C=N/NC(=O)c2ccc(OC)c(OC)c2)cc1COc1c(F)c(F)c(F)c(F)c1F		inconclusive [cytotoxic, single point]
CCCCCCc1cc2cc(-c3nnc(-c4ccccc4O)o3)c(=O)oc2cc1O	inactive: -0.0801%	
C[C@@H](Nc1nc(-c2ccccc2)nc2c1oc1ccccc12)C(=O)O		inconclusive [cytotoxic, single point]
CC(C)OCCCn1c(-c2ccco2)nc2nc3ccccc3nc21		inconclusive [cytotoxic, single point]
Cc1ccc([N+](=O)[O-])cc1N=Nc1c(C)[nH]n(C(N)=S)c1=O	inactive: 9.24%	
Cc1ccc(C(=O)C=Cc2cccc(C)c2)cc1		inconclusive [cytotoxic, single point]

SMILES	activity, negative = toxicity	Potency
CC1(OC(=O)C2CCCC2)C(=O)C=C2C=C(c3ccsc3)N(Cc3ccccc3)C=C2C1=O (stereo not given)	inactive: -6.55%	
FC(F)(F)c1ccccc1Cc1c(-c2ccco2)nc2ccc(Br)cn12		inconclusive [cytotoxic, single point]
O=C1CCCN1CCCNc1nc2c(S(=O)(=O)c3ccccc3)nnn2c2ccc(Cl)cc12		inconclusive [cytotoxic, single point]
Cc1c(CCOC(=O)C2C3CC4CC(C3)CC2C4)sc[n+]1CC(=O)c1ccc(Br)cc1 (stereo not given)		inconclusive [cytotoxic, single point]
Cc1cc(C(=O)O/N=C(\N)c2ccc(C(C)(C)C)cc2)no1	inactive: 0.234%	
Cc1ccc(Cl)cc1NC(=O)c1ccc(Cn2cc(Cl)cn2)cc1		inconclusive [cytotoxic, partial curve]
CC(C)(C)C(=O)Nc1cc(S(=O)(=O)N2CCCCC2)ccc1N1CCCCC1		inconclusive [cytotoxic, partial curve]
C/C(=N\Nc1ccc(F)cc1F)c1ccccc1O		inconclusive [cytotoxic, partial curve, poor fit]
C[C@@H](C(=O)NCc1c(F)cccc1Cl)N1C(=O)N2CCc3c([nH]c4ccccc34)[C@@]2(C)C1=O	inactive: -7.59%	
O=C(COC(=O)CCc1ccccc1)NC(c1ccccc1)c1ccccc1	inactive: -2.55%	
CC(=O)Nc1nc2ccc(Br)cc2s1		inconclusive [cytotoxic, single point]
COC(=O)c1cnn2c(C(F)(F)F)cc(-c3ccccc3)nc12		inconclusive [cytotoxic, single point]
COc1ccc2sc(-c3ccc(N(C)C)cc3)c(C#CC(C)(C)O)c2c1		inconclusive [cytotoxic, partial curve]
COc1ccccc1CN1CCNC(=O)C1CC(=O)NC1CCCCCC1 (stereo not given)	inactive: 0.834%	
Clc1ccc(-c2cc(-c3ccccn3)on2)c(Cl)c1	inactive: -24.4%	
CCOc1ccc(Cl)cc1-c1cc(C(=O)NCc2cc(C(F)(F)F)cc(C(F)(F)F)c2)[nH]n1		inconclusive [cytotoxic, single point]
CSc1ccc(Cn2c(C)c(C(=O)NCc3cccc(C)c3)sc2=O)cc1		inconclusive [cytotoxic, single point]
COc1ccc(NC(=O)C(c2ccncc2)n2c(=O)c(-c3ccccc3)nc3ccccc32)cc1 (stereo not given)		inconclusive [cytotoxic, partial curve]
CCOc1ccc(-n2c(-c3ccc(Br)cc3)c[n+]3c2CCCCC3)cc1		inconclusive [cytotoxic, single point]
COc1ccc(NC(=O)CSc2nc(=O)n(CCN(C)C)c3c2CCCC3)cc1OC	inactive: -18%	
Cc1ccc(/C=N/NC(=O)CSCc2ccc(Cl)cc2)cc1		inconclusive [cytotoxic, single point]
COC(=O)c1[nH]c2ccccc2c1NC(=O)CN1CCN(c2cccc(OC)c2)C(C)C1 (stereo not given)		inconclusive [cytotoxic, single point]
